From PMC12212275
No constants are given. Whether binding was seen depends on the method and setting. For some assays here: Binding seen in cells or lysates may run through a third protein. Some binding calls cover weakened binding; strength is not graded here. For some assays here: Sequences can lack the tags named with a protein.

Protein sequences, listed by entry. Tags and fused reporters are not part of them.
UniProt O00560: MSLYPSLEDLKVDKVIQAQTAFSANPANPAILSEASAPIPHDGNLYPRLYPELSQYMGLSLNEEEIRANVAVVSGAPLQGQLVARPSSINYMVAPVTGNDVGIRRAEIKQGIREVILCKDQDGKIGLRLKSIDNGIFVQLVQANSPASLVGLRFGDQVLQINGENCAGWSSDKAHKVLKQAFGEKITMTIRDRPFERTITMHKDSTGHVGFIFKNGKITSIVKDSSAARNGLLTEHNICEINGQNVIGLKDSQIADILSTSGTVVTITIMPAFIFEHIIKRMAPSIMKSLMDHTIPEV
UniProt P54105: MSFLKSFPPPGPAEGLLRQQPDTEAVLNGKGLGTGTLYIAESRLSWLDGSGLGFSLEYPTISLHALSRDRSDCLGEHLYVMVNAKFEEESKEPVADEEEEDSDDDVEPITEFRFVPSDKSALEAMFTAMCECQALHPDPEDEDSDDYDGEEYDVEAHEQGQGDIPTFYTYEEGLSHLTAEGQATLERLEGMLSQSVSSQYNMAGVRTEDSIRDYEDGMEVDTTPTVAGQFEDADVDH

Legend:
HA-tagged TBK1 = biological target: T1, HA-tagged TBK1 (UniProt Q9UHD2); test: co-IP; reciprocal IP in co-transfected HEK293T: TBK1 precipitated, syntenin-1 detected by immunoblot (Fig. 1D)
T1 sequence: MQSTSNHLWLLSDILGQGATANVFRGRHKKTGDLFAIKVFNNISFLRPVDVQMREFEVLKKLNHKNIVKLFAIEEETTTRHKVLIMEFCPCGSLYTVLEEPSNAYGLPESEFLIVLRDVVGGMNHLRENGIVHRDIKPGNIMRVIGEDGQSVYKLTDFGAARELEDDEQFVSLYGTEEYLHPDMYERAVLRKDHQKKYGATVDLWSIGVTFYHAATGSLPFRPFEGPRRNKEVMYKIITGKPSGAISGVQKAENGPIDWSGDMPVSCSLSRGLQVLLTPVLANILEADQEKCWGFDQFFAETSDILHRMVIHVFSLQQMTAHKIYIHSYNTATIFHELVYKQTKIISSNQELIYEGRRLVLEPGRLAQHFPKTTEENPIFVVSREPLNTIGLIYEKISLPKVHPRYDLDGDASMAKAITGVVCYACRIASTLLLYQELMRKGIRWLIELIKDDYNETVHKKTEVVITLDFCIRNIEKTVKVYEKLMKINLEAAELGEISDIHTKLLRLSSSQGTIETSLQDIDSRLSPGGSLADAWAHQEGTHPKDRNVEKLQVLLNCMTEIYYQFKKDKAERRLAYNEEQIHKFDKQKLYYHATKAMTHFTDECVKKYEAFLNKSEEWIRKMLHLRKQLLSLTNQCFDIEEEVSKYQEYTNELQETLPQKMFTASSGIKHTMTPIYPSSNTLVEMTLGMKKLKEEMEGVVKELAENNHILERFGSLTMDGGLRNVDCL

[1] = biological target: Flag-tagged syntenin-1 (human) (UniProt O00560); test: co-IP; HEK293T co-transfected; lysate with anti-Flag magnetic beads overnight at 4 °C (Flag-syntenin-1 precipitated); washed with 1% Triton X-100 in PBS; HA-tagged partner detected by immunoblot
[2] = biological target: endogenous syntenin-1 (A549) (human (endogenous in A549)) (UniProt O00560); test: co-IP; endogenous proteins in A549 cells; IP with an anti-syntenin-1 antibody; TBK1 detected by immunoblot
GST-HA-CLNS1A = GST-HA-CLNS1A (UniProt P54105); test: pull-down; 0.5 μg HA-syntenin-1 or HA-CLNS1A held on anti-HA magnetic beads (20 mM Tris pH 7.5, 150 mM NaCl, 10% glycerol, 1 h at room temperature); 0.25 μg GST-TBK1 added, 4 °C overnight; washed with 1% Triton X-100 in PBS; Western blot and Coomassie staining; both purified
[3] = biological target: GST-HA-syntenin-1 (human) (UniProt O00560); test: as above

Molecule: Flag-tagged syntenin-1 (from UniProt O00560 1-298)
- binding (HA-tagged TBK1): binds

B1: HA-tagged TBK1 (enzyme, UniProt Q9UHD2 1-729)
chain: MQSTSNHLWLLSDILGQGATANVFRGRHKKTGDLFAIKVFNNISFLRPVDVQMREFEVLKKLNHKNIVKLFAIEEETTTRHKVLIMEFCPCGSLYTVLEEPSNAYGLPESEFLIVLRDVVGGMNHLRENGIVHRDIKPGNIMRVIGEDGQSVYKLTDFGAARELEDDEQFVSLYGTEEYLHPDMYERAVLRKDHQKKYGATVDLWSIGVTFYHAATGSLPFRPFEGPRRNKEVMYKIITGKPSGAISGVQKAENGPIDWSGDMPVSCSLSRGLQVLLTPVLANILEADQEKCWGFDQFFAETSDILHRMVIHVFSLQQMTAHKIYIHSYNTATIFHELVYKQTKIISSNQELIYEGRRLVLEPGRLAQHFPKTTEENPIFVVSREPLNTIGLIYEKISLPKVHPRYDLDGDASMAKAITGVVCYACRIASTLLLYQELMRKGIRWLIELIKDDYNETVHKKTEVVITLDFCIRNIEKTVKVYEKLMKINLEAAELGEISDIHTKLLRLSSSQGTIETSLQDIDSRLSPGGSLADAWAHQEGTHPKDRNVEKLQVLLNCMTEIYYQFKKDKAERRLAYNEEQIHKFDKQKLYYHATKAMTHFTDECVKKYEAFLNKSEEWIRKMLHLRKQLLSLTNQCFDIEEEVSKYQEYTNELQETLPQKMFTASSGIKHTMTPIYPSSNTLVEMTLGMKKLKEEMEGVVKELAENNHILERFGSLTMDGGLRNVDCL
- binding [1]: binds

B2: endogenous TBK1 (A549) (enzyme, UniProt Q9UHD2 1-729)
chain: MQSTSNHLWLLSDILGQGATANVFRGRHKKTGDLFAIKVFNNISFLRPVDVQMREFEVLKKLNHKNIVKLFAIEEETTTRHKVLIMEFCPCGSLYTVLEEPSNAYGLPESEFLIVLRDVVGGMNHLRENGIVHRDIKPGNIMRVIGEDGQSVYKLTDFGAARELEDDEQFVSLYGTEEYLHPDMYERAVLRKDHQKKYGATVDLWSIGVTFYHAATGSLPFRPFEGPRRNKEVMYKIITGKPSGAISGVQKAENGPIDWSGDMPVSCSLSRGLQVLLTPVLANILEADQEKCWGFDQFFAETSDILHRMVIHVFSLQQMTAHKIYIHSYNTATIFHELVYKQTKIISSNQELIYEGRRLVLEPGRLAQHFPKTTEENPIFVVSREPLNTIGLIYEKISLPKVHPRYDLDGDASMAKAITGVVCYACRIASTLLLYQELMRKGIRWLIELIKDDYNETVHKKTEVVITLDFCIRNIEKTVKVYEKLMKINLEAAELGEISDIHTKLLRLSSSQGTIETSLQDIDSRLSPGGSLADAWAHQEGTHPKDRNVEKLQVLLNCMTEIYYQFKKDKAERRLAYNEEQIHKFDKQKLYYHATKAMTHFTDECVKKYEAFLNKSEEWIRKMLHLRKQLLSLTNQCFDIEEEVSKYQEYTNELQETLPQKMFTASSGIKHTMTPIYPSSNTLVEMTLGMKKLKEEMEGVVKELAENNHILERFGSLTMDGGLRNVDCL
- binding [2]: binds

B3: GST-TBK1 (enzyme, UniProt Q9UHD2 1-729)
chain: MQSTSNHLWLLSDILGQGATANVFRGRHKKTGDLFAIKVFNNISFLRPVDVQMREFEVLKKLNHKNIVKLFAIEEETTTRHKVLIMEFCPCGSLYTVLEEPSNAYGLPESEFLIVLRDVVGGMNHLRENGIVHRDIKPGNIMRVIGEDGQSVYKLTDFGAARELEDDEQFVSLYGTEEYLHPDMYERAVLRKDHQKKYGATVDLWSIGVTFYHAATGSLPFRPFEGPRRNKEVMYKIITGKPSGAISGVQKAENGPIDWSGDMPVSCSLSRGLQVLLTPVLANILEADQEKCWGFDQFFAETSDILHRMVIHVFSLQQMTAHKIYIHSYNTATIFHELVYKQTKIISSNQELIYEGRRLVLEPGRLAQHFPKTTEENPIFVVSREPLNTIGLIYEKISLPKVHPRYDLDGDASMAKAITGVVCYACRIASTLLLYQELMRKGIRWLIELIKDDYNETVHKKTEVVITLDFCIRNIEKTVKVYEKLMKINLEAAELGEISDIHTKLLRLSSSQGTIETSLQDIDSRLSPGGSLADAWAHQEGTHPKDRNVEKLQVLLNCMTEIYYQFKKDKAERRLAYNEEQIHKFDKQKLYYHATKAMTHFTDECVKKYEAFLNKSEEWIRKMLHLRKQLLSLTNQCFDIEEEVSKYQEYTNELQETLPQKMFTASSGIKHTMTPIYPSSNTLVEMTLGMKKLKEEMEGVVKELAENNHILERFGSLTMDGGLRNVDCL
- binding (GST-HA-CLNS1A): no binding (tested: 0.25 μg GST-TBK1 with 0.5 μg HA-CLNS1A)
- binding [3]: binds
